Article PMC12136788
Some of the results follow.

B1: chr5:76617584:76618642:-|CDS|ENSG00000164220|control|control|control (ssRNA)
RNA: GGGAGUUCUACAGUCCGACGAUCUGAUGGCUUAUAUUUUAUAUAUCUCAUAGCUUUGUGCCUGGGUAGUCUUAAUAGUUGCUUAGAUCCAUUCCUUUAUUUUCUCAUGUCAAAAACCAGAAAUCACUCCACUGCUUACCUUACCAACAGAGGAUUGAGCAUCA
B2: chr20:57607060:57607300:-|CDS|ENSG00000124256|control|control|control (ssRNA)
RNA: GGGAGUUCUACAGUCCGACGAUCCCUGUGAAUGUUGAUAGUUUGACCUCCUCCCAUGAAUCACAAAUGUUCUUAACGGCAUGUAGAUUGGUGAUCUUUUCCAGAAGAUUUUCAACUUACUUUGCCCAGAUCCAUCUGAGGAAUCAACAGAGGAUUGAGCAUCA
B3: chr2:111862450:111862553:-|CDS|ENSG00000153107|unk|FALSE|unique (ssRNA)
RNA: GGGAGUUCUACAGUCCGACGAUCUCUUUUUCAGGGGUGCAAAGGUUCAACAUUUCAAGCCAUAAUCAGUCUCCAAAGAGACAUAGUAUUUCUCAUUCUCCAAAUAGUAAUUCUAAUGGCUCCUUUCUUGCACCAGAAACGGAGCAACAGAGGAUUGAGCAUCA
B4: chr9:115020670:115020933:-|3pUTR|ENSG00000041982|msi1|total|mutant (ssRNA)
RNA: GGGAGUUCUACAGUCCGACGAUCCUUCUCUCCGGUGGCUCUGGGAAUGGGAGAGGGGCCGGAUGUACAGGGGCCGUUUGUUUCCGAACCAGCCGUAUUUUACAUGAAGCUGUAUAAUUAAUUGUCAUUAUUUUUGUCCGCAAACAACAGAGGAUUGAGCAUCA
B5: chr9:114377124:114377225:-|CDS|ENSG00000106948|msi1|total|mutant (ssRNA)
RNA: GGGAGUUCUACAGUCCGACGAUCUCCGUUGAACUCAGCCCGGCAAGGUCCUGGAGCAGUGGGACAGUGAGCCUCGACCACCCCCGUGACAGCCUUGAUUCUACCUGGGAAGGAGAGACCGAUGGCCCCCAGCCCACUGCCCUGCAACAGAGGAUUGAGCAUCA
B6: chr14:100278170:100278208:+|3pUTR|ENSG00000100811|msi1_unk|total|mutant (ssRNA)
RNA: GGGAGUUCUACAGUCCGACGAUCGCUAUCUUAAUUUUGGUUGUAUUCUUUGAUGUUAACACAUUUUGUAUAAUUGUAUCGUACCGCUGUAUUGAAUCAUGCCGUAUCAAAUAUCCGAUGUGAUUUAACCGUGUUAAUCAAUUUCAACAGAGGAUUGAGCAUCA
B7: chr3:115809552:115809653:-|3pUTR|ENSG00000185565|unk|total|mutant (ssRNA)
RNA: GGGAGUUCUACAGUCCGACGAUCCUCCCUCACCUCUCCUCACCUCCACCCCCUCCCCAGAGCACCCGUCAUGCCGCAAAUGCCCGGAAGUGCCAUUUUCAUUUUCUCCACUGUGCGUGUGUGCUCAAGUCUUUCGCUCUCACGCAACAGAGGAUUGAGCAUCA
B8: chr14:60975662:60975785:-|CDS|ENSG00000126814|unk|total|mutant (ssRNA)
RNA: GGGAGUUCUACAGUCCGACGAUCGAAAGAAAACCCUCUGUGCACGUUGUCAUGAACUUGCCAGCAAAAGCUACCGAGUUUCUCCGUGCUUUCAAGUGGCUUUCCGAUGGGCAGCCAUGCAGCAGUGAGUUCCUUCCCACCGUGCAACAGAGGAUUGAGCAUCA
B9: ENSG00000197063:stop:overlap|stop_codon|ENSG00000197063|stop_codon|NA|stop_codon (ssRNA)
RNA: GGGAGUUCUACAGUCCGACGAUCGCAAGGUGGCCGCCACCAGCGUCAUCACAAUAGUAAAGUCCAAGACGGAUGCCCGAUCGUAGGGACGCGCGUCUGCCCAGGCGGGUCUUUGCGGGGCCACUAGGCACAUGGCGAAUUUGGCAACAGAGGAUUGAGCAUCA
B10: chr6:33573622:33573723:-|3pUTR|ENSG00000030110|unk|FALSE|unique (ssRNA)
RNA: GGGAGUUCUACAGUCCGACGAUCCGAAGUCUUUGCCUUCUCUGUUCCCUUGCAGGGGUCCCCCCUCAAGAGUACAGAAGCUUUAGCAAGUGUGCACUCCAGCUUCGGAGGGCCCCUGCGUGGGGGCCAGUCAGGCUGCAGAGGCAACAGAGGAUUGAGCAUCA
B11: chr7:66987971:66988072:-|3pUTR|ENSG00000126524|unk|FALSE|unique (ssRNA)
RNA: GGGAGUUCUACAGUCCGACGAUCAAGUUACUUGAGGCAGCUCUUGUGGGUGAAAAGUUAUUUGUACAGUAGAGUAAGAUUAUUAGGGGUAUGUCUAUACAACAAAAGGGGGGGUCUUUCCUAAAAAAGAAAACAUAUGAUGCUCAACAGAGGAUUGAGCAUCA
B12: chr12:71585298:71585408:+|3pUTR|ENSG00000139292|unk|total|mutant (ssRNA)
RNA: GGGAGUUCUACAGUCCGACGAUCUUGUUAACUCACUCAUAUUGAGAUCAUUUUCCGAGAUACCAGGUUUUAUGUAUCAGCACCCGAUGGUUCCACCCUCAUGGGAUAAAACUGCUUACAAGUAUUUUGAAAGAAAAACUGACCCAACAGAGGAUUGAGCAUCA
B13: chr19:811491:811550:+|3pUTR|ENSG00000011304|msi1_unk|total|mutant (ssRNA)
RNA: GGGAGUUCUACAGUCCGACGAUCCCGCAAUAUUUCCAGUUGACCAAAUAUUCUAAUCUUUUUUCAUUUAUAUGCAAAAGAAACCGUUUUAAGUAACUUUUUACCGCAAGAUGAUACAAUGGUAUGAGUGUAAUCUAAACUUCCCAACAGAGGAUUGAGCAUCA
B14: ENSG00000198589:be:win_4301|CDS|ENSG00000198589|bound_else_gene|NA|bound_elsewhere_windowed (ssRNA)
RNA: GGGAGUUCUACAGUCCGACGAUCUGUCAUCUGGAGGAAUUUUGCGGCAGUGUCUCCGACUAGUUUGUGCAGUCGCAGUAAGGAAUUGCUUGGAGUGUCAACAGCAUUCACAACUGAAAACUAGGGGAGAUAAAGCCUUGAAACCAACAGAGGAUUGAGCAUCA
B15: chr2:55866929:55867030:-|3pUTR|ENSG00000115380|msi1|total|mutant (ssRNA)
RNA: GGGAGUUCUACAGUCCGACGAUCAUUUAAGUCAGCCAAAGAAUAUUGUUACCUUAAAGCACUAUUUUAUUUACCGAUAUAUCCCGUGCAUCUACAUCUCUAUACUGUACACUCACCCAUAAUUCAAACAAUUACACCAUGGUACAACAGAGGAUUGAGCAUCA
B16: chr20:17613772:17613873:-|3pUTR|ENSG00000125844|unk|total|mutant (ssRNA)
RNA: GGGAGUUCUACAGUCCGACGAUCAGCCCCGUGGGUGUGUGGGAGGCCGGGCGCUCUGGGGUCUGUCUGUCAGUGCAAUCGUUCCGUGUUUUUUCAGUGGGGCGGGGCGGGAAGCGGGUGGGACCGGGCAGCCAGUUCUCAAAGCAACAGAGGAUUGAGCAUCA
B17: chr8:129748195:129748500:-|three_prime_utr|ENSG00000147697|control|control|control (ssRNA)
RNA: GGGAGUUCUACAGUCCGACGAUCUCCAGAGAUGCUGGCCCUCGCCCAGUCUAUGCUGUGAGUGUCCUUAUGGGUGCAAGAGAUAGGGCUGUGCCUCUCUGCGUUUCCAGGUGGAGUAGAGACAGUAAUGGGUAGAGACUUUAGCAACAGAGGAUUGAGCAUCA
B18: chr1:156668797:156668898:-|3pUTR|ENSG00000132688|msi1|FALSE|bound_elsewhere (ssRNA)
RNA: GGGAGUUCUACAGUCCGACGAUCUGACGGCACUCCCAUGUGCUGACUCCCCCCAUCCCUGCCACGCUGUGGCCCUGCCUGGCUAGUCCCUGCCUGAAUAAAGUAAUGCCUCCGCUUCAAAGUCUGGACUCUUCUUUCCCCCACCAACAGAGGAUUGAGCAUCA
B19: chr14:88572724:88572825:+|CDS|ENSG00000100722|unk|FALSE|unique (ssRNA)
RNA: GGGAGUUCUACAGUCCGACGAUCGUGACACUUACAUAUGGUUCUUCUCGCCCUUCUAUUGAAAUUUAUCGACCACCUGCAAGUAGAAAUGCAGAUAGUGGUGUUCAUUUAAACAGGUUGCAAUUUCAACAGCAGCAGAAUAGUCAACAGAGGAUUGAGCAUCA
B20: ENSG00000124766:be:win_3551|3pUTR|ENSG00000124766|bound_else_gene|NA|bound_elsewhere_windowed (ssRNA)
RNA: GGGAGUUCUACAGUCCGACGAUCCGUUUAAACCACUGGAUCUAUCUAAAUGCCGAUUUGAGUUCGCGACACUAUGUACUGCGUUUUUCAUUCUUGUAUUUGACUAUUUAAUCCUUUCUACUUGUCGCUAAAUAUAAUUGUUUUCAACAGAGGAUUGAGCAUCA
B21: chr12:30637093:30637194:-|CDS|ENSG00000133704|unk|FALSE|bound_elsewhere (ssRNA)
RNA: GGGAGUUCUACAGUCCGACGAUCUGUCUACAUUUUUUUUUUCUUCAAAAUUUGCAGGCAUCAUGACCGGAAGAUGUGUAUAAUAGGACUGAGUAUCCUUUUGGAAUUGCAAAAUCGACCUCCUGCAGUAGAUGCUGUGGUGGGCAACAGAGGAUUGAGCAUCA
B22: chr10:92030311:92030412:+|3pUTR|ENSG00000095564|unk|FALSE|unique (ssRNA)
RNA: GGGAGUUCUACAGUCCGACGAUCAUAUAAGAUUGAAACUGUAAAAUAUAUGCAACUGUGUGUUAUUUGUAGGAAAUGGUCACUAGAAAGAGCAAAAGAUUAUUCAGGUAUACAGGUUUUUUUUCAUUGUUUAGGAUUUUAACUCAACAGAGGAUUGAGCAUCA

Each binder was assayed against MSI1 full-length (mouse, UniProt Q61474 1-362) (assay: nsRBNS (natural sequence RNA bind-n-seq); RBNS binding buffer (assumed for nsRBNS): 25 mM Tris pH 7.5, 150 mM KCl, 3 mM MgCl2, 0.01% Triton X-100, 500 ug/ml BSA, 20 U/ml SUPERase-In, 4 C; UNK is unkempt and MSI1 is Musashi-1; names of the RNAs are library labels; protein concentration not given here; high values mean tight binding).
UniProt Q61474, sequence (Q61474 whole entry): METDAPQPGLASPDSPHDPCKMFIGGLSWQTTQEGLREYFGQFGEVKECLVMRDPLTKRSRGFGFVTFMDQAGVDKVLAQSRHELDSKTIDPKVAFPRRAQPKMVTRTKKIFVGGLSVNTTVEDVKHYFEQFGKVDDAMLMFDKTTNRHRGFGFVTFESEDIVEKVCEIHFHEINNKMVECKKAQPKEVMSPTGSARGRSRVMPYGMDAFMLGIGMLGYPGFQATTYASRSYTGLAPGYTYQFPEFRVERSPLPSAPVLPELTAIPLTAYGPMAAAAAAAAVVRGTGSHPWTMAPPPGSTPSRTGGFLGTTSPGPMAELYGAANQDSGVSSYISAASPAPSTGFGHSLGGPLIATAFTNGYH

Binder | binding signal [enrichment R]
B1 | 15
B2 | 0.236
B3 | 0.368
B4 | 0.768
B5 | 0.536
B6 | 0.455
B7 | 1.13
B8 | 0.346
B9 | 0.565
B10 | 0.298
B11 | 1.78
B12 | 0.415
B13 | 0.482
B14 | 0.309
B15 | 1.52
B16 | 0.811
B17 | 0.724
B18 | 1.01
B19 | 1.17
B20 | 1.07
B21 | 0.324
B22 | 6.54
